The experiment relates to BALB/c mice, Madison 109 lung carcinoma i.m., survival. The experiment can be described thus: NCI In Vivo Anticancer Drug Screen. Data for tumor model Madison 109 Lung Carcinoma (intramuscular) in BALB/CM mice. To be noted: endpoint: median survival time; dose: 400.0 mg/kg/injection; schedule: Q01DX009 (ip); vehicle: saline; higher = longer survival. How it is done: The antitumor activity of compounds was measured in mice bearing transplantable tumors. Survival or tumor size were measured and the results are expressed as the measurement made in the treated group (T) divided by the measurement made in the vehicle treated control group (C). The tumor model used in this assay is Madison 109 Lung Carcinoma (intramuscular) in BALB/CM mice

Inconclusive results and toxic doses are left out. Some entries of the source have several records that differ or are many. This is not the full list of results. The source may hold further records. The records of an entry are repeated measurements in other runs, samples, wells, individuals or studies.

For the molecule `CN(C)C=O`, the T/C is 104 % of control, 111 % of control, 160 % of control.

(Values after PubChem BioAssay AID302 (DTP/NCI, 2004).)
